Source: PubChem BioAssay AID624417 (National Center for Advancing Translational Sciences (NCATS), 2012)
Out of some 410,000 compounds screened, about 6,400 (1.6%) were called active. This list was built around the results that the source calls inconclusive (neither active nor inactive); the mix of calls is not that of the screen. The call rests on the fitted dose curve; in most records, active means well fitted inhibition curve with a large enough effect; inconclusive means small, poorly fitted or top-dose-only effect; inactive means no such curve, though single readings can be large or run the other way. No potency is given beside an inconclusive call; the fits are too rough.

molecular target: Glucagon-like peptide 1 receptor (Homo sapiens) (UniProt P43220); experiment: qHTS of GLP-1 Receptor Inverse Agonists (Inhibition Mode); settings: HEK293 GLP-1R CRE-luciferase, luminescence, 24 h, GLP-1R form is constitutively active; series mostly up to 38.3 µM; further: nearly all actives have a fitted effect of over 55% in size
Chain of UniProt P43220 (P43220 whole entry, looked up): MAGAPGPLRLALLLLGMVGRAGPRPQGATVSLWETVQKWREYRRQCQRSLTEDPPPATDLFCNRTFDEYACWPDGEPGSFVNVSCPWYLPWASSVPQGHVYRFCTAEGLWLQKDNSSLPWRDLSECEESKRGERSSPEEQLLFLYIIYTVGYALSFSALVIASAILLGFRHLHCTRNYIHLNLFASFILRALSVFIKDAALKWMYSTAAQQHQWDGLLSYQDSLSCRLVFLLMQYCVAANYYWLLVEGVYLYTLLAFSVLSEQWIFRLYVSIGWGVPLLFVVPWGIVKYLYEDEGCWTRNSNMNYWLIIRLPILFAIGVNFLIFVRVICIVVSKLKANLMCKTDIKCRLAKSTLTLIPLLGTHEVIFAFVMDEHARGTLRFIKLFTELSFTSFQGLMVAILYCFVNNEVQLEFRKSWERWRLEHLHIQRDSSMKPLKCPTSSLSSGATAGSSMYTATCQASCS
How it was run: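 Using stably transfected HEK293 (constitutively active GLP-1R, cAMP-luciferase reporter), compounds were incubated 24 hr and luciferase measured by luminescence.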
Potency means the concentration at half of the fitted maximal effect; tags describe the fitted curve by direction and shape.

SMILES | Potency
CCn1c(CSc2nccn2C)nc2cc(C(=O)O)ccc21 | inactive
CCOC(=O)c1cc2c(=O)n3ccccc3nc2n(Cc2ccco2)c1=NC(=O)c1cc(C)cc(C)c1 | inconclusive [inhibitor, single point]
O=c1c(Cl)c(N/N=C/c2ccc(Cl)cc2)cnn1-c1ccccc1 | inconclusive [inhibitor, partial curve, poor fit]
O=C(NCc1cccc2ccsc12)c1cccs1 | inconclusive [inhibitor, single point]
Cc1c(C(=O)N2CCOCC2)[nH]c2c1C(=O)CC(c1ccc(Cl)cc1)C2 (stereo not given) | inconclusive [inhibitor, full curve, poor fit]
CC(NC(=O)COc1ccccc1Cl)c1ccccc1 (stereo not given) | inconclusive [inhibitor, single point]
CN(C(=O)COc1ccccc1C(=O)NCCOc1ccccc1)c1ccccc1 | inconclusive [inhibitor, partial curve, poor fit]
C=CCNC(=S)N/N=C1\CCS(=O)(=O)c2ccccc21 | inactive
CC1=Nc2cc(C(=O)NCCCN3CCN(C)CC3)ccc2Sc2ccc(C)cc21 | inconclusive [inhibitor, single point]
Cc1ccc(Cn2c(C)c(CNC3CCCCC3)c(C(=O)O)c2C)cc1 | inactive
O=C(COC(=O)c1ccccc1C(=O)c1ccc(Cl)cc1)NCc1ccccc1 | inconclusive [inhibitor, single point]
Cc1ccc(COc2ccccc2C(=S)N2CCCC2)cc1 | inconclusive [inhibitor, partial curve, poor fit]
COc1ccc(-n2c(C)c([N+](=O)[O-])c3ccc(O)c(CN(C)C)c32)cc1 | inconclusive [inhibitor, full curve, poor fit]
CCCCN(C)C(=O)Cc1c(OC)ccc2cc(Br)ccc12 | inconclusive [inhibitor, single point]
COc1cccc2[nH]c3c(N4CCc5ccccc5C4)ncnc3c12 | inactive
Cc1ccc2c(c1)N(C(=O)CCC(=O)NCC(C)c1ccccc1)CC(C)O2 (stereo not given) | inconclusive [inhibitor, single point]
Cc1sc2ncnc(N3CCC(C(=O)Nc4ccc(F)cc4Cl)CC3)c2c1C | inconclusive [inhibitor, single point]
CC(C)(CO)NC(=O)C12CC3CC(CC(Br)(C3)C1)C2 | inactive
O=C(/C=C\c1ccco1)Oc1cccc2cccnc12 | inconclusive [inhibitor, full curve, poor fit]
Cc1ccc(S(=O)(=O)N2CCCSCC2)cc1 | inconclusive [inhibitor, single point]
COc1cccc(CNC(=O)C2CCCN(C(=O)c3ccc(Cl)cc3)C2)c1 (stereo not given) | inconclusive [inhibitor, partial curve, poor fit]
CN(C)CCNC(=O)c1c(CSc2ccccc2)noc1C(=O)NCc1ccccc1 | inconclusive [inhibitor, partial curve, poor fit]

SMILES | Potency
Cc1cccc(-n2ccnc2SCC(=O)Nc2ccccc2C(F)(F)F)c1 | inactive
CN(C)S(=O)(=O)c1cccc(NC(=O)CSc2ncnc3ccccc23)c1 | inconclusive [inhibitor, single point]
O=C(CSc1nc2ccccc2n1Cc1ccc(F)c(Cl)c1)N1CCN(c2ccc(F)cc2)CC1 | inactive
COc1cccc(NC(=S)Nc2cc(C)cc(C)n2)c1 | inconclusive [inhibitor, partial curve, poor fit]
CCc1ccc(NC(=O)CSC2=Nc3ccccc3C3=NC(CCC(=O)NCc4cccs4)C(=O)N23)cc1 (stereo not given) | inconclusive [inhibitor, partial curve, poor fit]
COC(=O)c1ccc(C(=O)OC)c(NC(=O)CSCc2ccc(Cl)cc2)c1 | inconclusive [inhibitor, partial curve]
CCCc1nn2c(=O)cc(COC(=O)c3ccc(NC(=O)c4cccs4)cc3)nc2s1 | inconclusive [inhibitor, partial curve, poor fit]
CCn1ncc(CN2CCN(Cc3ccc(OC)c(C)c3C)C(CCO)C2)c1C (stereo not given) | inconclusive [inhibitor, partial curve, poor fit]
CCSc1nnc(NC(=O)C(C)(C(F)(F)F)C(F)(F)F)s1 | inactive
CCn1cc(C(=O)OCC(=O)c2cc(C)n(-c3cccc(C(F)(F)F)c3)c2C)c(=O)c2ccc(C)nc21 | inconclusive [inhibitor, single point]
Cc1cc(C)cc(Oc2coc3c(CN(C)C)c(O)ccc3c2=O)c1 | inactive
CCOC(=O)c1cc(-c2ccccc2)sc1N | inactive
COc1ccc(-c2cnc(SCC(=O)Nc3ccc4c(c3)OCO4)n2Cc2ccco2)cc1 | inconclusive [inhibitor, single point]
Cc1cc(C)c(NS(=O)(=O)c2ccc(NC(=O)c3cccs3)cc2)c(C)c1 | inconclusive [inhibitor, full curve, poor fit]
Cc1csc(NC(=O)c2cnc3ccccc3n2)n1 | inconclusive [inhibitor, single point]
Cc1cccc(NS(=O)(=O)c2ccc(C(=O)N3CCCCCC3)cc2)c1C | inconclusive [inhibitor, single point]
COc1cccc(-c2sc3ccc(OC)cc3c2C#CC2(O)CCCCC2)c1 | inconclusive [inhibitor, partial curve, poor fit]
CN(CC(=O)Nc1cccc(F)c1)C(=O)c1cn(-c2ccccc2)nc1-c1ccc(Cl)cc1 | inconclusive [inhibitor, partial curve, poor fit]
O=C(COc1ccc([N+](=O)[O-])cc1)N(Cc1ccccc1)Cc1ccccc1 | inconclusive [inhibitor, single point]
C=CCn1c(=O)[nH]c2cc(C(=O)N3CCN(c4cccc(Cl)c4)CC3)ccc2c1=O | inconclusive [inhibitor, partial curve, poor fit]
COc1ccc(C2C3=C(CCCC3=O)Nc3nc(C(F)(F)F)nn32)cc1OC (stereo not given) | inactive
O=C(c1cc(-c2ccccc2)nc2ccccc12)N1CCN(c2ccccc2O)CC1 | inconclusive [inhibitor, single point]

SMILES | Potency
O=C(O)CC(Cc1ccc(Cl)cc1)C(=O)NCC12CC3CC(CC(C3)C1)C2 (stereo not given) | inconclusive [inhibitor, single point]
COC(=O)CN(c1cc(Cl)ccc1OC)S(=O)(=O)c1ccc(C)cc1 | inconclusive [inhibitor, single point]
O=NN(CC(=O)NNc1ccccc1)CC(=O)NNc1ccccc1 | inconclusive [inhibitor, full curve, poor fit]
CC1CCC(NC(=O)c2[nH]c(C(F)(F)F)nc2-c2ccccc2)CC1 (stereo not given) | inconclusive [inhibitor, single point]
COc1ccc(/C=C2\CCC/C(=C\c3ccc(OC)c(OC)c3OC)C2=O)c(OC)c1OC | inconclusive [inhibitor, partial curve, poor fit]
COc1ccc(C(=O)C(CN2CCCC2)c2ccccc2)cc1 (stereo not given) | active: 5.62 µM
CCc1cc(-c2n[nH]c(=S)n2C(C)c2ccccc2)cs1 (stereo not given) | inactive
COc1cc(NC(=O)c2ccc(C(=O)Nc3cc(OC)c(Cl)cc3OC)cc2)c(OC)cc1Cl | inactive
O=C(CSc1cc(Cl)ccc1Cl)NCC1CCCO1 (stereo not given) | inconclusive [inhibitor, partial curve, poor fit]
CCCN1CCN(CCCNC(=O)Cn2nc(C)n3c(cc4cc(F)ccc43)c2=O)CC1 | inconclusive [inhibitor, partial curve]
Cc1cccc2c1-c1sc(C(=O)NCc3ccccc3Cl)cc1CO2 | inconclusive [inhibitor, partial curve]
Cc1cccc(C)c1-n1c(C)cc(/C=N/NC(N)=S)c1C | active: 11.2 µM
O=C(NCC(c1cccs1)N1CCOCC1)c1cn(-c2ccccc2)nc1-c1ccc(Cl)cc1 (stereo not given) | inactive
CCOc1ccc(CNC(=O)COc2cc(=O)n(C)c3ccccc23)cc1 | inactive
CCN(CC)CCn1c2c(c(SCC(=O)Nc3cc(OC)cc(OC)c3)nc1=O)CCC2 | inconclusive [inhibitor, single point]
O=C(CCl)N1CCN(C(=O)C2COc3ccccc3O2)CC1 (stereo not given) | inconclusive [inhibitor, single point]
O=S(=O)(c1c(F)cccc1F)N1CCN(Cc2c(O)ccc3ccccc23)CC1 | inconclusive [inhibitor, single point]
O=C(CCl)Nc1ccccc1C(=O)Nc1ccc2c(c1)OCO2 | inconclusive [inhibitor, single point]
COc1ccc(C(=O)/C=C/c2ccc(O)cc2)c(O)c1CC=C(C)C | inconclusive [inhibitor, partial curve, poor fit]
Cc1oc(-c2cccc(F)c2)nc1CN1CCCCC1CCn1cccn1 (stereo not given) | inconclusive [inhibitor, partial curve, poor fit]
Cc1ccc(S(=O)(=O)Nc2ccc3c4c(cccc24)CC3)c(C)c1 | inconclusive [inhibitor, partial curve, poor fit]
